{
  "source": "the supplement of paper PMC8728848",
  "experiment_in_all_cases": "glycan array binding signal (z-score within array); higher = stronger binding",
  "conditions_in_all_cases": "glycan notation: IUPAC condensed, linker removed",
  "key": {"[1]": {"biological_target": "Kdn(a2-3)Gal(b1-3)GlcNAc", "how_it_was_run": "(§1)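 From the Consortium for Functional Glycomics database, 3228 arrays were curated, keeping only those whose protein sequence was available. Binding is given as a within-array Z-score averaged across arrays sharing a protein sequence and across linkers. Negative Z-scores can be read as non-binding.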"}, "[2]": {"biological_target": "Kdn(a2-3)Gal(b1-4)Glc", "how_it_was_run": "as §1"}, "[3]": {"biological_target": "Kdn(a2-3)Gal(b1-4)GlcNAc", "how_it_was_run": "as §1"}, "[4]": {"biological_target": "Kdn(a2-3)Gal(b1-4)[Fuc(a1-3)]GlcNAc", "how_it_was_run": "as §1"}, "[5]": {"biological_target": "Kdn(a2-6)Gal(b1-4)GlcNAc", "how_it_was_run": "as §1"}, "[6]": {"biological_target": "Man(a1-2)Man(a1-2)Man(a1-3)Man", "how_it_was_run": "as §1"}, "[7]": {"biological_target": "Man(a1-2)Man(a1-2)Man(a1-6)[Man(a1-3)]Man", "how_it_was_run": "as §1"}, "[8]": {"biological_target": "Man(a1-2)Man(a1-3)Man", "how_it_was_run": "as §1"}, "[9]": {"biological_target": "Man(a1-2)Man(a1-3)[Man(a1-2)Man(a1-6)]Man", "how_it_was_run": "as §1"}, "[10]": {"biological_target": "Man(a1-2)Man(a1-3)[Man(a1-2)Man(a1-6)]Man(a1-6)[Man(a1-2)Man(a1-2)Man(a1-3)]Man", "how_it_was_run": "as §1"}, "[11]": {"biological_target": "Man(a1-2)Man(a1-3)[Man(a1-2)Man(a1-6)]Man(a1-6)[Man(a1-2)Man(a1-2)Man(a1-3)]Man(b1-4)GlcNAc(b1-4)GlcNAc", "how_it_was_run": "as §1"}, "[12]": {"biological_target": "Man(a1-2)Man(a1-3)[Man(a1-2)Man(a1-6)]Man(a1-6)[Man(a1-3)[Man(a1-6)]Man(a1-6)]Man(b1-4)GlcNAc(b1-4)GlcNAc", "how_it_was_run": "as §1"}, "[13]": {"biological_target": "Man(a1-2)Man(a1-3)[Man(a1-6)]Man(a1-6)[Man(a1-2)Man(a1-3)]Man(b1-4)GlcNAc(b1-4)GlcNAc", "how_it_was_run": "as §1"}, "[14]": {"biological_target": "Man(a1-2)Man(a1-6)[Man(a1-3)]Man(a1-6)[Man(a1-2)Man(a1-2)Man(a1-3)]Man", "how_it_was_run": "as §1"}, "[15]": {"biological_target": "Man(a1-2)Man(a1-6)[Man(a1-3)]Man(a1-6)[Man(a1-2)Man(a1-2)Man(a1-3)]Man(b1-4)GlcNAc(b1-4)GlcNAc", "how_it_was_run": "as §1"}, "[16]": {"biological_target": "Man(a1-3)[Man(a1-6)]Man", "how_it_was_run": "as §1"}, "[17]": {"biological_target": "Man(a1-3)[Man(a1-6)]Man(a1-6)[Man(a1-2)Man(a1-3)]Man(b1-4)GlcNAc(b1-4)GlcNAc", "how_it_was_run": "as §1"}, "[18]": {"biological_target": "Man(a1-3)[Man(a1-6)]Man(a1-6)[Man(a1-3)]Man", "how_it_was_run": "as §1"}, "[19]": {"biological_target": "Man(a1-3)[Man(a1-6)]Man(a1-6)[Man(a1-3)]Man(b1-4)GlcNAc(b1-4)GlcNAc", "how_it_was_run": "as §1"}, "[20]": {"biological_target": "Man(a1-3)[Man(a1-6)]Man(b1-4)GlcNAc(b1-4)GlcNAc", "how_it_was_run": "as §1"}, "[21]": {"biological_target": "Man(a1-3)[Man(a1-6)]Man(b1-4)GlcNAc(b1-4)[Fuc(a1-6)]GlcNAc", "how_it_was_run": "as §1"}, "[22]": {"biological_target": "Man(a1-6)Man", "how_it_was_run": "as §1"}, "[23]": {"biological_target": "Man(b1-4)GlcNAc", "how_it_was_run": "as §1"}, "[24]": {"biological_target": "MurNAc(b1-4)GlcNAc", "how_it_was_run": "as §1"}, "[25]": {"biological_target": "Neu5Ac(a2-3)Gal", "how_it_was_run": "as §1"}, "[26]": {"biological_target": "Neu5Ac(a2-3)Gal(b1-3)GalNAc", "how_it_was_run": "as §1"}, "[27]": {"biological_target": "Neu5Ac(a2-3)Gal(b1-3)GalNAc(b1-3)Gal(a1-4)Gal(b1-4)Glc", "how_it_was_run": "as §1"}, "[28]": {"biological_target": "Neu5Ac(a2-3)Gal(b1-3)GalNAc(b1-3)Gal(b1-4)GlcNAc", "how_it_was_run": "as §1"}, "[29]": {"biological_target": "Neu5Ac(a2-3)Gal(b1-3)GalNAc(b1-4)[Neu5Ac(a2-3)]Gal(b1-4)Glc", "how_it_was_run": "as §1"}, "[30]": {"biological_target": "Neu5Ac(a2-3)Gal(b1-3)GalNAc(b1-4)[Neu5Ac(a2-8)Neu5Ac(a2-3)]Gal(b1-4)Glc", "how_it_was_run": "as §1"}, "[31]": {"biological_target": "Neu5Ac(a2-3)Gal(b1-3)GalNAc6S", "how_it_was_run": "as §1"}, "[32]": {"biological_target": "Neu5Ac(a2-3)Gal(b1-3)GlcNAc", "how_it_was_run": "as §1"}, "[33]": {"biological_target": "Neu5Ac(a2-3)Gal(b1-3)GlcNAc(b1-2)Man", "how_it_was_run": "as §1"}, "[34]": {"biological_target": "Neu5Ac(a2-3)Gal(b1-3)GlcNAc(b1-2)Man(a1-3)[GlcNAc(b1-4)][Neu5Ac(a2-3)Gal(b1-3)GlcNAc(b1-2)Man(a1-6)]Man(b1-4)GlcNAc(b1-4)GlcNAc", "how_it_was_run": "as §1"}, "[35]": {"biological_target": "Neu5Ac(a2-3)Gal(b1-3)GlcNAc(b1-2)Man(a1-3)[Neu5Ac(a2-3)Gal(b1-3)GlcNAc(b1-2)Man(a1-6)]Man(b1-4)GlcNAc(b1-4)GlcNAc", "how_it_was_run": "as §1"}, "[36]": {"biological_target": "Neu5Ac(a2-3)Gal(b1-3)GlcNAc(b1-3)Gal(b1-3)GlcNAc", "how_it_was_run": "as §1"}, "[37]": {"biological_target": "Neu5Ac(a2-3)Gal(b1-3)GlcNAc(b1-3)Gal(b1-4)GlcNAc", "how_it_was_run": "as §1"}, "[38]": {"biological_target": "Neu5Ac(a2-3)Gal(b1-3)GlcNAc(b1-3)GalNAc", "how_it_was_run": "as §1"}, "[39]": {"biological_target": "Neu5Ac(a2-3)Gal(b1-3)GlcNAc(b1-4)Gal(b1-4)Glc", "how_it_was_run": "as §1"}, "[40]": {"biological_target": "Neu5Ac(a2-3)Gal(b1-3)GlcNAc(b1-6)GalNAc", "how_it_was_run": "as §1"}, "[41]": {"biological_target": "Neu5Ac(a2-3)Gal(b1-3)GlcNAc6S", "how_it_was_run": "as §1"}},
  "note": "This is one part of the list.",
  "data": [
    {"binder": "ABA (Agaricus bisporus), Q00022 (protein) MTYTISIRVYQTTPKGFFRPVERTNWKYANGGTWDEVRGEYVLTMGGSGTSGSLRFVSSDTDESFVATFGVHNYKRWCDIVTNLTNEQTALVINQEYYGVPIRDQARENQLTSYNVANAKGRRFAIEYTVTEGDNLKANLIIG", "values": [
      {"measurement": "glycan array binding signal (z-score)", "setting": "[1]", "result": -0.215},
      {"measurement": "glycan array binding signal (z-score)", "setting": "[2]", "result": -0.171},
      {"measurement": "glycan array binding signal (z-score)", "setting": "[3]", "result": -0.258},
      {"measurement": "glycan array binding signal (z-score)", "setting": "[4]", "result": -0.159},
      {"measurement": "glycan array binding signal (z-score)", "setting": "[5]", "result": -0.239},
      {"measurement": "glycan array binding signal (z-score)", "setting": "[6]", "result": -0.223},
      {"measurement": "glycan array binding signal (z-score)", "setting": "[7]", "result": -0.042},
      {"measurement": "glycan array binding signal (z-score)", "setting": "[8]", "result": -0.24},
      {"measurement": "glycan array binding signal (z-score)", "setting": "[9]", "result": -0.219},
      {"measurement": "glycan array binding signal (z-score)", "setting": "[10]", "result": -0.274},
      {"measurement": "glycan array binding signal (z-score)", "setting": "[11]", "result": 0.46},
      {"measurement": "glycan array binding signal (z-score)", "setting": "[12]", "result": -0.133},
      {"measurement": "glycan array binding signal (z-score)", "setting": "[13]", "result": -0.219},
      {"measurement": "glycan array binding signal (z-score)", "setting": "[14]", "result": -0.215},
      {"measurement": "glycan array binding signal (z-score)", "setting": "[15]", "result": -0.237},
      {"measurement": "glycan array binding signal (z-score)", "setting": "[16]", "result": -0.224},
      {"measurement": "glycan array binding signal (z-score)", "setting": "[17]", "result": 2.82},
      {"measurement": "glycan array binding signal (z-score)", "setting": "[18]", "result": -0.112},
      {"measurement": "glycan array binding signal (z-score)", "setting": "[19]", "result": -0.202},
      {"measurement": "glycan array binding signal (z-score)", "setting": "[20]", "result": 0.241},
      {"measurement": "glycan array binding signal (z-score)", "setting": "[21]", "result": -0.221},
      {"measurement": "glycan array binding signal (z-score)", "setting": "[22]", "result": -0.012},
      {"measurement": "glycan array binding signal (z-score)", "setting": "[23]", "result": -0.205},
      {"measurement": "glycan array binding signal (z-score)", "setting": "[24]", "result": -0.275},
      {"measurement": "glycan array binding signal (z-score)", "setting": "[25]", "result": -0.22},
      {"measurement": "glycan array binding signal (z-score)", "setting": "[26]", "result": 0.197},
      {"measurement": "glycan array binding signal (z-score)", "setting": "[27]", "result": -0.117},
      {"measurement": "glycan array binding signal (z-score)", "setting": "[28]", "result": 0.11},
      {"measurement": "glycan array binding signal (z-score)", "setting": "[29]", "result": -0.39},
      {"measurement": "glycan array binding signal (z-score)", "setting": "[30]", "result": -0.227},
      {"measurement": "glycan array binding signal (z-score)", "setting": "[31]", "result": 1.56},
      {"measurement": "glycan array binding signal (z-score)", "setting": "[32]", "result": -0.201},
      {"measurement": "glycan array binding signal (z-score)", "setting": "[33]", "result": -0.143},
      {"measurement": "glycan array binding signal (z-score)", "setting": "[34]", "result": -0.133},
      {"measurement": "glycan array binding signal (z-score)", "setting": "[35]", "result": 0.103},
      {"measurement": "glycan array binding signal (z-score)", "setting": "[36]", "result": -0.264},
      {"measurement": "glycan array binding signal (z-score)", "setting": "[37]", "result": -0.286},
      {"measurement": "glycan array binding signal (z-score)", "setting": "[38]", "result": -0.149},
      {"measurement": "glycan array binding signal (z-score)", "setting": "[39]", "result": -0.182},
      {"measurement": "glycan array binding signal (z-score)", "setting": "[40]", "result": -0.27},
      {"measurement": "glycan array binding signal (z-score)", "setting": "[41]", "result": 0.596}
    ]}
  ]
}
